Reference: US20240425555A1 (NORTHWESTERN UNIVERSITY, published 2024)

Target: T1, PTEFb complex (CDK9 and Cyclin T1), endogenous, from cell lysate (human, UniProt P50750; O60563 1-726)
T1 construct: Endogenous complex captured from cell lysate and detected by mass spectrometry or by western blot for CDK9 and Cyclin T1; Other associated proteins in the lysate are not excluded; also called positive transcription elongation factor
Experiment: GFP IP-MS and western blot

T1 sequence (P50750 whole entry, chain 1 of 2): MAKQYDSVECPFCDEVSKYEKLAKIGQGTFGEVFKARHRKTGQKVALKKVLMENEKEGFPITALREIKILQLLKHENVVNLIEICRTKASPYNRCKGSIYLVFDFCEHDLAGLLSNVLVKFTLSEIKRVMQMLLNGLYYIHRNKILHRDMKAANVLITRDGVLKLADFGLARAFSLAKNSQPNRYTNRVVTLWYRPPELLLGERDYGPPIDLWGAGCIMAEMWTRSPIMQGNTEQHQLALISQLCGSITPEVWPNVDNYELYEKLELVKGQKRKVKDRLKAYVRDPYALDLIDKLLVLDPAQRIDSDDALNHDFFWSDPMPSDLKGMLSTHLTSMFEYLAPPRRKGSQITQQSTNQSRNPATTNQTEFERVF
T1 sequence (O60563 whole entry, chain 2 of 2, further chain): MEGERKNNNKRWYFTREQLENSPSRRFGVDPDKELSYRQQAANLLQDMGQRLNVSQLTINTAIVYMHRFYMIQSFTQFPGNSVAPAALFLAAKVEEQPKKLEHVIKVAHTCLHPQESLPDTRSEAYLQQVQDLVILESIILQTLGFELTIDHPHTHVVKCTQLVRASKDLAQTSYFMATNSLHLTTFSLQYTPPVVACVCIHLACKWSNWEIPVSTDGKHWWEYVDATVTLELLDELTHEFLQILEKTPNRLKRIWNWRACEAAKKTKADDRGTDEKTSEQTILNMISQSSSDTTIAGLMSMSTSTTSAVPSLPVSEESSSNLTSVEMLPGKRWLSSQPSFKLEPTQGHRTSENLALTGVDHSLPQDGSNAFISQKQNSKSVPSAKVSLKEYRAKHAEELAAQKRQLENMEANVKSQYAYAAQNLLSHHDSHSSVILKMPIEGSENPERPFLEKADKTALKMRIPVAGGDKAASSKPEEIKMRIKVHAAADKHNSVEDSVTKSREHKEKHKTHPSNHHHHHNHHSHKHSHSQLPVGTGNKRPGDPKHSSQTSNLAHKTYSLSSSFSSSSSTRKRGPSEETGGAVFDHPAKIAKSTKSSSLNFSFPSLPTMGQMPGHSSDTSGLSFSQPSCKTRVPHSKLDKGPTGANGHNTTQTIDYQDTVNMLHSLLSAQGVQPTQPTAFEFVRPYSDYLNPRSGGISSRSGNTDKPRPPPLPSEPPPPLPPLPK

binding result: binds
B1: GFP-tagged BRD4 short C terminus construct (Cs), 170 residues from the C terminus of BRD4 (other)
chain: DLKIKNMGSWASLVQKHPTTPSSTAKSSSDSFEQFRRAAREKEEREKALKAQAEHAEKEKERLRQERMRSREDEDALEQARRAHEEARRRQEQQQQQRQEQQQQQQQQAAAVAAAAT[about 60 residues not given here]
notes: also called BRD4-Cs; C-terminal fragment Cs; not shown: NLS-GFP tag of vector TetOn-NLS-GFP
